# This is one part of the list.
# How the values were obtained:
# Test in all cases: glycan array binding signal (z-score within array); higher = stronger binding
# Settings in all cases: glycan notation: IUPAC condensed, linker removed
# [1] = molecular target: Gal3S(b1-4)[Fuc(a1-3)]Glc
# Procedure, shortened: (§1)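 Glycan array binding is given as a within-array Z-score, which can be read as non-binding when negative. The arrays, 3228 of them, came from the Consortium for Functional Glycomics database and were retained only where the protein sequence was available. Z-scores were averaged across arrays of the same protein sequence at different concentrations or buffers and across linkers.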
# [2] = molecular target: Gal3S4S(b1-4)GlcNAc
# Procedure, shortened: as §1
# [3] = molecular target: Gal3S6S(b1-4)GlcNAc
# Procedure, shortened: as §1
# [4] = molecular target: Gal3S6S(b1-4)GlcNAc6S
# Procedure, shortened: as §1
# [5] = molecular target: Gal4S(b1-4)GlcNAc
# Procedure, shortened: as §1
# [6] = molecular target: Gal4S6S(b1-4)GlcNAc
# Procedure, shortened: as §1
# [7] = molecular target: Gal6S(b1-4)Glc
# Procedure, shortened: as §1
# [8] = molecular target: Gal6S(b1-4)Glc6S
# Procedure, shortened: as §1
# [9] = molecular target: Gal6S(b1-4)GlcNAc
# Procedure, shortened: as §1
# [10] = molecular target: Gal6S(b1-4)GlcNAc6S
# Procedure, shortened: as §1
# [11] = molecular target: GalNAc(a1-3)Gal
# Procedure, shortened: as §1
# [12] = molecular target: GalNAc(a1-3)GalNAc
# Procedure, shortened: as §1
# [13] = molecular target: GalNAc(b1-3)Gal
# Procedure, shortened: as §1
# [14] = molecular target: GalNAc(b1-3)Gal(a1-4)Gal(b1-4)GlcNAc
# Procedure, shortened: as §1
# [15] = molecular target: GalNAc(b1-3)GalNAc
# Procedure, shortened: as §1
# [16] = molecular target: GalNAc(b1-4)GlcNAc
# Procedure, shortened: as §1
# [17] = molecular target: Glc(a1-4)Glc
# Procedure, shortened: as §1
# [18] = molecular target: Glc(a1-6)Glc(a1-6)Glc
# Procedure, shortened: as §1
# [19] = molecular target: Glc(b1-4)Glc
# Procedure, shortened: as §1
# [20] = molecular target: Glc(b1-6)Glc
# Procedure, shortened: as §1
# [21] = molecular target: GlcA(b1-3)Gal
# Procedure, shortened: as §1
# [22] = molecular target: GlcA(b1-3)GlcNAc
# Procedure, shortened: as §1
# [23] = molecular target: GlcA(b1-6)Gal
# Procedure, shortened: as §1
# [24] = molecular target: GlcNAc(a1-3)Gal(b1-4)GlcNAc
# Procedure, shortened: as §1
# [25] = molecular target: GlcNAc(a1-6)Gal(b1-4)GlcNAc
# Procedure, shortened: as §1
# [26] = molecular target: GlcNAc(b1-2)Gal(b1-3)GalNAc
# Procedure, shortened: as §1
# [27] = molecular target: GlcNAc(b1-2)Man(a1-3)[GlcNAc(b1-2)Man(a1-6)]Man(b1-4)GlcNAc(b1-4)GlcNAc
# Procedure, shortened: as §1
# [28] = molecular target: GlcNAc(b1-3)Gal
# Procedure, shortened: as §1
# [29] = molecular target: GlcNAc(b1-3)Gal(b1-3)GalNAc
# Procedure, shortened: as §1
# [30] = molecular target: GlcNAc(b1-3)Gal(b1-4)Glc
# Procedure, shortened: as §1
# [31] = molecular target: GlcNAc(b1-3)Gal(b1-4)GlcNAc
# Procedure, shortened: as §1
# [32] = molecular target: GlcNAc(b1-3)Gal(b1-4)GlcNAc(b1-3)Gal(b1-4)GlcNAc
# Procedure, shortened: as §1
# [33] = molecular target: GlcNAc(b1-3)GalNAc
# Procedure, shortened: as §1
# [34] = molecular target: GlcNAc(b1-3)Man
# Procedure, shortened: as §1
# [35] = molecular target: GlcNAc(b1-3)[GlcNAc(b1-4)][GlcNAc(b1-6)]GlcNAc
# Procedure, shortened: as §1
# [36] = molecular target: GlcNAc(b1-3)[GlcNAc(b1-6)]Gal(b1-4)GlcNAc
# Procedure, shortened: as §1
# [37] = molecular target: GlcNAc(b1-3)[GlcNAc(b1-6)]GalNAc
# Procedure, shortened: as §1
binder,measurement,setting,value
Mannose Binding Protein (Lactobacillus plantarum) (protein) AERSEAALTHVDKDNFLKYFSLNGSATYDAKTGIVTITPNQNNQVGNFSLTSKIDMNKSFTLTGQVNLGSNPNGADGIGFAFHSGNTTDVGNAGGNLGIGGLQDAIGFKLDTWFNSYQAPSSDKNGSEISSTNSNGFGWNGDSANAPYGTFVKTSNQEISTANGSKVQRWWAQDTGESQALSKADIDGNFHDFVVNYDGATRTLTVSYTQASGKVLTWKTTVASSYQAMAMVVSASTGAAKNLQQFKLTSFDFQEAATVNVKYVDTTGHQLAQG,glycan array binding signal (z-score),[1],-0.246
same,glycan array binding signal (z-score),[2],0.117
same,glycan array binding signal (z-score),[3],0.496
same,glycan array binding signal (z-score),[4],0.933
same,glycan array binding signal (z-score),[5],0.245
same,glycan array binding signal (z-score),[6],0.846
same,glycan array binding signal (z-score),[7],0.521
same,glycan array binding signal (z-score),[8],0.095
same,glycan array binding signal (z-score),[9],0.156
same,glycan array binding signal (z-score),[10],1.22
same,glycan array binding signal (z-score),[11],0.532
same,glycan array binding signal (z-score),[12],0.128
same,glycan array binding signal (z-score),[13],-0.617
same,glycan array binding signal (z-score),[14],4.17
same,glycan array binding signal (z-score),[15],2.15
same,glycan array binding signal (z-score),[16],0.161
same,glycan array binding signal (z-score),[17],-0.331
same,glycan array binding signal (z-score),[18],-0.457
same,glycan array binding signal (z-score),[19],-0.108
same,glycan array binding signal (z-score),[20],0.102
same,glycan array binding signal (z-score),[21],-0.216
same,glycan array binding signal (z-score),[22],-0.177
same,glycan array binding signal (z-score),[23],-0.517
same,glycan array binding signal (z-score),[24],-0.038
same,glycan array binding signal (z-score),[25],-0.056
same,glycan array binding signal (z-score),[26],-0.421
same,glycan array binding signal (z-score),[27],-0.399
same,glycan array binding signal (z-score),[28],-0.377
same,glycan array binding signal (z-score),[29],0.2
same,glycan array binding signal (z-score),[30],-0.18
same,glycan array binding signal (z-score),[31],-0.184
same,glycan array binding signal (z-score),[32],-0.254
same,glycan array binding signal (z-score),[33],0.303
same,glycan array binding signal (z-score),[34],0.01
same,glycan array binding signal (z-score),[35],0.293
same,glycan array binding signal (z-score),[36],-0.769
same,glycan array binding signal (z-score),[37],0.656
